The list shows a part of the results. Repeats are few or missing, and single values can be far off.
Key:
IMR-32 [1] = experiment: drug sensitivity score (DSS), single drug with vehicle (DSS (score)); higher = more cytotoxic; extreme values may be limits of the assay; conditions: 72 h; co-treatment: vehicle (DMSO)
SK-N-AS [2] = experiment: as above; conditions: 72 h; co-treatment: vehicle (DMSO)
SK-N-AS [3] = experiment: drug sensitivity score (DSS) in combination with SL-176 (DSS (score)); higher = more cytotoxic; extreme values may be limits of the assay; conditions: 72 h; co-treatment: SL-176 11.2 uM (IC25 in IMR-32)
IMR-32 [4] = experiment: as above; conditions: 72 h; co-treatment: SL-176 11.2 uM (IC25 in IMR-32)
SK-N-AS [5] = experiment: drug sensitivity score (DSS) in combination with GSK2830371 (DSS (score)); neuroblastoma lines; SL-176 and GSK2830371 are WIP1 inhibitors; higher = more cytotoxic; extreme values may be limits of the assay; conditions: 72 h; co-treatment: GSK2830371 at IC25 in IMR-32
IMR-32 [6] = experiment: as above; conditions: 72 h; co-treatment: GSK2830371 at IC25 in IMR-32
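For drug sensitivity score (DSS) in combination with GSK2830371 in this document: neuroblastoma cells in 384-well plates, each compound at five concentrations, luminescence read-out, DSS derived from fitted concentration-response curve combining IC50 with minimum and maximum inhibition.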
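For drug sensitivity score (DSS) in combination with SL-176 in this document: cells in 384-well plates, luminescence read-out, each screening drug at five concentrations, DSS derived from the fitted concentration-response curve combining IC50 with minimum and maximum inhibition.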
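For drug sensitivity score (DSS), single drug with vehicle in this document: 384-well screen with five concentrations per compound and a luminescence read-out, DSS computed from the fitted dose-response curve combining IC50 with minimum and maximum inhibition.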

| Structure (SMILES) | drug sensitivity score (IMR-32 [1]) | drug sensitivity score (SK-N-AS [2]) | drug sensitivity score (SK-N-AS [3]) | drug sensitivity score (IMR-32 [4]) | drug sensitivity score (SK-N-AS [5]) | drug sensitivity score (IMR-32 [6]) |
| --- | --- | --- | --- | --- | --- | --- |
| CCNC(=O)C[C@@H]1N=C(c2ccc(Cl)cc2)c2cc(OC)ccc2-n2c(C)nnc21 [Molibresib] | 4.5 | 6.4 | 6.6 | 7.9 | 6.9 | 9.9 |
| Cn1cc(C2=C(c3cn(C4CCN(Cc5ccccn5)CC4)c4ccccc34)C(=O)NC2=O)c2ccccc21 [Enzastaurin] | 0 | 1.1 | 2.6 | 7 | 2.2 | 0 |
| Cc1sc2c(c1C)C(c1ccc(Cl)cc1)=N[C@@H](CC(=O)Nc1ccc(O)cc1)c1nnc(C)n1-2 [Birabresib] | 14.6 | 8.6 | 9.4 | 15.9 | 9.9 | 18.2 |
| COCC1(CO)C(=O)C2CCN1CC2 (centres undefined) | 0 | 0 | 0 | 0 | 0 | 0 |
| O=C(Nc1ccncc1)C(=O)c1cn(Cc2ccc(Cl)cc2)c2ccccc12 [Indibulin] | 22 | 22.6 | 21.3 | 27 | 21.3 | 27.6 |
| N.N.[Cl][Pt][Cl] [Cisplatin] | 29.4 | 11.1 | 8.1 | 28.4 | 10.5 | 30.2 |
| CCC/C=C/C=C/C(=O)O[C@H]1/C(=C/C(=O)OC)C[C@H]2C[C@H]([C@@H](C)O)OC(=O)C[C@H](O)C[C@@H]3C[C@H](OC(C)=O)C(C)(C)[C@](O)(C[C@@H]4C/C(=C/C(=O)OC)C[C@H](/C=C/C(C)(C)[C@]1(O)O2)O4)O3 [Bryostatin 1] | 0 | 0 | 0 | 0 | 0 | 0 |
| COc1cc(C)[nH]c(=O)c1CNC(=O)c1c(C)n([C@H](C)C2CCOCC2)c2ccccc12 | 0 | 0 | 0 | 0 | 0 | 0 |
| CCOc1ccccc1-n1c(C(C)N2CCN(C(=O)COc3ccc(Cl)cc3)CC2)nc2ccccc2c1=O (centres undefined) [Erastin] | 21.3 | 13.3 | 11 | 16.9 | 13.7 | 18.4 |
| CC[C@@H](C(=O)[C@@H](C)[C@@H](O)[C@H](C)[C@@H]1O[C@@H]([C@@H](CC)C(=O)O)CC[C@@H]1C)[C@H]1O[C@]2(C=C[C@@H](O)[C@]3(CC[C@@](C)([C@H]4CC[C@](O)(CC)[C@H](C)O4)O3)O2)[C@H](C)C[C@@H]1C [Salinomycin] | 28.3 | 5.6 | 8.2 | 30.1 | 17.8 | 29.7 |
| CCC1(c2ccc(N)cc2)CCC(=O)NC1=O (centres undefined) [Aminoglutethimide] | 0 | 0 | 0 | 2.1 | 0 | 0 |
| Cc1c(N)nc([C@H](CC(N)=O)NC[C@H](N)C(N)=O)nc1C(=O)N[C@H](C(=O)N[C@H](C)[C@@H](O)[C@H](C)C(=O)N[C@H](C(=O)NCCc1nc(-c2nc(C(=O)NCCC[S+](C)C)cs2)cs1)[C@@H](C)O)[C@@H](OC1OC(CO)C(O)C(O)C1OC1OC(CO)C(O)C(OC(N)=O)C1O)c1cnc[nH]1 (some centres undefined) [Bleomycin] | 13.3 | 3.3 | 2.8 | 11.6 | 4 | 16.8 |
| CN(C)c1cc2c(cc1Sc1nc3c(N)nccc3n1CCNCC(C)(C)C)OCO2 | 13.9 | 12.3 | 12.6 | 9.8 | 12.3 | 11.7 |
| Clc1ccccc1C(c1ccccc1)(c1ccccc1)n1cccn1 | 0 | 0 | 0 | 0.5 | 0 | 0 |
| O=C(O)CNC(=O)c1c(O)c2ccccc2n(Cc2ccccc2)c1=O | 0 | 0 | 0 | 2.8 | 0 | 0 |
| CC(O)(CS(=O)(=O)c1ccc(F)cc1)C(=O)Nc1ccc(C#N)c(C(F)(F)F)c1 (centres undefined) [Bicalutamide] | 2.5 | 0 | 0 | 0 | 0.4 | 0 |
| CC1(C)C(C(=O)Nc2ccc(S(=O)(=O)c3ccc(NC(=O)C4C(C)(C)C4(C)C)cc3)cc2)C1(C)C | 0 | 3.8 | 4.2 | 2.7 | 4.1 | 0 |
| CCc1c(C(=O)C(N)=O)c2c(OCC(=O)O)cccc2n1Cc1ccccc1 [Varespladib] | 0 | 0 | 1 | 0 | 0 | 0 |
| C=C1C[C@@H]2[C@H](CC[C@]3(C)C(=O)CC[C@@H]23)[C@@]2(C)C=CC(=O)C=C12 [Exemestane] | 0 | 0.4 | 0.8 | 0 | 0 | 0.8 |
